The text below walks through data of article PMC3353973 (PLoS ONE, 2012).

The test system of this assay is HIV-1 LAI/IIIB. As to conditions: TZM-bl cells; for IC50: read-out: IC50, inhibition of HIV-1 infectivity, strain IIIB, X4 strain LAI/IIIB, moi 4, luciferase read-out after 48 h.

SMILES strings stand for the structures.

A word on the IC50: it is the concentration that inhibits the measured activity by half.

Consider `CC[C@H](C)[C@H](NC(=O)[C@H](CC(C)C)NC(=O)[C@H](CO)NC(=O)[C@H](Cc1c[nH]cn1)NC(=O)[C@@H](NC(=O)[C@H](CC(C)C)NC(=O)[C@H](CO)NC(=O)[C@@H](NC(=O)[C@H](Cc1ccc(O)cc1)NC(=O)[C@H](CC(N)=O)NC(=O)[C@H](CC(N)=O)NC(=O)[C@@H](NC(=O)[C@H](CCC(=O)O)NC(=O)[C@H](CCCNC(=N)N)NC(=O)[C@H](CC(=O)O)NC(=O)[C@H](Cc1c[nH]c2ccccc12)NC(=O)[C@H](CCC(=O)O)NC(=O)[C@H](CCSC)NC(=O)[C@H](Cc1c[nH]c2ccccc12)NC(C)=O)[C@@H](C)CC)[C@@H](C)O)[C@@H](C)CC)C(=O)N[C@@H](CCC(=O)O)C(=O)N[C@@H](CCC(=O)O)C(=O)N[C@@H](CO)C(=O)N[C@@H](CCC(N)=O)C(=O)N[C@@H](CC(N)=O)C(=O)N[C@@H](CCC(N)=O)C(=O)N[C@@H](CCC(N)=O)C(=O)N[C@@H](CCC(=O)O)C(=O)N[C@@H](CCCCN)C(=O)N[C@@H](CC(N)=O)C(=O)N[C@@H](CCC(=O)O)C(=O)N[C@@H](CCC(N)=O)C(=O)N[C@@H](CCC(=O)O)C(=O)N[C@@H](CC(C)C)C(=O)N[C@@H](CC(C)C)C(=O)NCC(=O)N[C@@H](CO)C(=O)NCC(=O)N[C@@H](CSCC(N)=O)C(N)=O` [HIV-P2], for which the IC50 was determined as 31.1 ± 36 nM.

Regarding `CC[C@H](C)[C@H](NC(=O)[C@H](CC(C)C)NC(=O)[C@H](CO)NC(=O)[C@H](Cc1c[nH]cn1)NC(=O)[C@@H](NC(=O)[C@H](CC(C)C)NC(=O)[C@H](CO)NC(=O)[C@@H](NC(=O)[C@H](Cc1ccc(O)cc1)NC(=O)[C@H](CC(N)=O)NC(=O)[C@H](CC(N)=O)NC(=O)[C@@H](NC(=O)[C@H](CCC(=O)O)NC(=O)[C@H](CCCNC(=N)N)NC(=O)[C@H](CC(=O)O)NC(=O)[C@H](Cc1c[nH]c2ccccc12)NC(=O)[C@H](CCC(=O)O)NC(=O)[C@H](CCSC)NC(=O)[C@H](Cc1c[nH]c2ccccc12)NC(C)=O)[C@@H](C)CC)[C@@H](C)O)[C@@H](C)CC)C(=O)N[C@@H](CCC(=O)O)C(=O)N[C@@H](CCC(=O)O)C(=O)N[C@@H](CO)C(=O)N[C@@H](CCC(N)=O)C(=O)N[C@@H](CC(N)=O)C(=O)N[C@@H](CCC(N)=O)C(=O)N[C@@H](CCC(N)=O)C(=O)N[C@@H](CCC(=O)O)C(=O)N[C@@H](CCCCN)C(=O)N[C@@H](CC(N)=O)C(=O)N[C@@H](CCC(=O)O)C(=O)N[C@@H](CCC(N)=O)C(=O)N[C@@H](CCC(=O)O)C(=O)N[C@@H](CC(C)C)C(=O)N[C@@H](CC(C)C)C(=O)NCC(=O)N[C@@H](CO)C(=O)NCC(=O)N[C@@H](CSC1CC(=O)N(CCCC(=O)NCCOCCOCCOCCOCCC(=O)NCCN(CCNC(=O)CCOCCOCCOCCOCCNC(=O)CCCN2C(=O)CC(SC[C@H](NC(=O)CNC(=O)[C@H](CO)NC(=O)CNC(=O)[C@H](CC(C)C)NC(=O)[C@H](CC(C)C)NC(=O)[C@H](CCC(=O)O)NC(=O)[C@H](CCC(N)=O)NC(=O)[C@H](CCC(=O)O)NC(=O)[C@H](CC(N)=O)NC(=O)[C@H](CCCCN)NC(=O)[C@H](CCC(=O)O)NC(=O)[C@H](CCC(N)=O)NC(=O)[C@H](CCC(N)=O)NC(=O)[C@H](CC(N)=O)NC(=O)[C@H](CCC(N)=O)NC(=O)[C@H](CO)NC(=O)[C@H](CCC(=O)O)NC(=O)[C@H](CCC(=O)O)NC(=O)[C@@H](NC(=O)[C@H](CC(C)C)NC(=O)[C@H](CO)NC(=O)[C@H](Cc3c[nH]cn3)NC(=O)[C@@H](NC(=O)[C@H](CC(C)C)NC(=O)[C@H](CO)NC(=O)[C@@H](NC(=O)[C@H](Cc3ccc(O)cc3)NC(=O)[C@H](CC(N)=O)NC(=O)[C@H](CC(N)=O)NC(=O)[C@@H](NC(=O)[C@H](CCC(=O)O)NC(=O)[C@H](CCCNC(=N)N)NC(=O)[C@H](CC(=O)O)NC(=O)[C@H](Cc3c[nH]c4ccccc34)NC(=O)[C@H](CCC(=O)O)NC(=O)[C@H](CCSC)NC(=O)[C@H](Cc3c[nH]c4ccccc34)NC(C)=O)[C@@H](C)CC)[C@@H](C)O)[C@@H](C)CC)[C@@H](C)CC)C(N)=O)C2=O)CCO[C@H]2CC[C@@]3(C)C(=CC[C@H]4[C@@H]5CC[C@H]([C@H](C)CCCC(C)C)[C@@]5(C)CC[C@@H]43)C2)C1=O)C(N)=O` (stereo partly drawn) [HIV-P4], the IC50 is 0.21 ± 0.37 nM. Under “ratio of IC50”, the “Potency increase versus the untagged HR-derived peptide (HIV-P2), strain IIIB” value was found to be 150 fold.
